Measured values from the supplement of paper PMC4967469.
A lower IC50 marks a more sensitive line; a fit beyond the top or the lowest dose is shown as a bound at that dose. The AUC spans the tested range (256-fold, ending at the top dose) of the same fit; values near 1 show little effect. For part of these data: An inferred top dose was calculated from the reported fits. For part of these data: Drugs with an entry number were screened twice under separate entries, and the two screens often disagree.

Key:
Experiment in all cases: Viability of human cancer cell lines after 72 h of drug (GDSC screen)
[1] = compound: CCCC(=O)OCc1ccc(OC(=O)/C=C(C)/C=C/C=C(C)/C=C/C2=C(C)CCCC2(C)C)cc1 [VNLG/124]; conditions: top dose 5.12 µM; top dose inferred
Protocol: (§1)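 Human cancer cell lines in 384-well plates, medium with 10% serum, drug for 72 h over a 256-fold dose range (nine 2-fold or five 4-fold steps up to the top dose). Adherent lines were fixed and stained with the nucleic acid dye Syto60, suspension lines read with resazurin; signal relative to control wells, capped at 0 and 100%. One two-parameter sigmoid per drug and line, fitted in a mixed model over all curves with the slope shared within a line.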

[2] = compound: Cc1ccc(NC(=O)c2ccc(CN3CCN(C)CC3)cc2)cc1Nc1nc(-c2cccnc2)cs1 [Masitinib]; conditions: top dose 20 µM
Protocol: as §1

[3] = compound: CN(NC(=O)CC(=O)NN(C)C(=S)c1ccccc1)C(=S)c1ccccc1 [Elesclomol]; conditions: top dose 0.2 µM; top dose inferred
Protocol: as §1

[4] = compound: CC/C(=C(\c1ccccc1)c1ccc(OCCN(C)C)cc1)c1ccccc1 [Tamoxifen]; conditions: top dose 5 µM
Protocol: as §1

[5] = compound: O=C(Nc1ccc(OC(F)(F)F)cc1)c1sccc1NCc1ccnc2ccccc12 [OSI-930]; conditions: top dose 10.24 µM
Protocol: as §1

[6] = compound: O=C(Nc1cccc(Nc2ncc(Br)c(NCCc3cnc[nH]3)n2)c1)N1CCCC1 [BX-912]; conditions: top dose 10.24 µM; top dose inferred
Protocol: as §1

[7] = compound: O=S(=O)(O)c1ccc2cc(N=Nc3cc(S(=O)(=O)O)c4cccnc4c3O)ccc2c1 [NSC-87877]; conditions: top dose 16 µM; top dose inferred
Protocol: as §1

[8] = compound: O=C(/C=C/c1ccc(CN(CCO)CCc2c[nH]c3ccccc23)cc1)NO [LAQ824]; conditions: top dose 1.024 µM; top dose inferred
Protocol: as §1

[9] = compound: Cc1c(N)nc([C@H](CC(N)=O)NC[C@H](N)C(N)=O)nc1C(=O)N[C@H](C(=O)N[C@H](C)[C@@H](O)[C@H](C)C(=O)N[C@H](C(=O)NCCc1nc(-c2nc(C(=O)NCCC[S+](C)C)cs2)cs1)[C@@H](C)O)[C@@H](OC1OC(CO)C(O)C(O)C1OC1OC(CO)C(O)C(OC(N)=O)C1O)c1cnc[nH]1 [Bleomycin]
Protocol: as §1

[10] = top dose 50 µM, screen: GDSC drug entry 1378, top dose inferred
[11] = top dose 64 µM, screen: GDSC drug entry 190

Row | Cell Line | AUC [1] | IC50 [1] | AUC [2] | IC50 [2] | AUC [3] | IC50 [3] | AUC [4] | IC50 [4] | AUC [5] | IC50 [5] | AUC [6] | IC50 [6] | AUC [7] | IC50 [7] | AUC [8] | IC50 [8] | AUC [9, 10] | IC50 [9, 10] | AUC [9, 11] | IC50 [9, 11]
1 | NCI-H1693 (lung adenocarcinoma, adherent) | 0.977 | > 5.12 µM | 0.938 | > 20 µM | 0.477 | 0.0104 µM | 0.973 | > 5 µM | 0.977 | > 10.2 µM | 0.95 | > 10.2 µM | 0.975 | > 16 µM | 0.533 | 0.083 µM | 0.706 | 17.2 µM | 0.625 | 10.9 µM
2 | NCI-H1703 (lung adenocarcinoma, adherent) | 0.979 | > 5.12 µM | 0.659 | 3.82 µM | 0.373 | 0.00516 µM | 0.965 | > 5 µM | 0.685 | 2.38 µM | 0.677 | 2.24 µM | 0.96 | > 16 µM | 0.649 | 0.182 µM | 0.513 | 3.41 µM | 0.158 | 0.268 µM
3 | NCI-H1836 (small cell lung carcinoma, suspension) | 0.973 | > 5.12 µM | 0.961 | > 20 µM | 0.988 | > 0.2 µM | 0.975 | > 5 µM | 0.964 | > 10.2 µM | 0.889 | > 10.2 µM | 0.979 | > 16 µM | 0.443 | 0.044 µM | 0.872 | > 50 µM | 0.976 | > 64 µM
4 | NCI-H1838 (lung adenocarcinoma, adherent) | 0.986 | > 5.12 µM | 0.913 | > 20 µM | 0.786 | 0.107 µM | 0.985 | > 5 µM | 0.976 | > 10.2 µM | 0.972 | > 10.2 µM | 0.981 | > 16 µM | 0.957 | > 1.02 µM | 0.91 | > 50 µM | 0.736 | 22.3 µM
5 | NCI-H1869 (lung squamous cell carcinoma, adherent) | 0.985 | > 5.12 µM | 0.926 | > 20 µM | 0.628 | 0.0295 µM | 0.971 | > 5 µM | 0.966 | > 10.2 µM | 0.966 | > 10.2 µM | 0.976 | > 16 µM | 0.637 | 0.161 µM | 0.713 | 13.6 µM | 0.898 | > 64 µM
6 | NCI-H2009 (lung adenocarcinoma, adherent) | 0.983 | > 5.12 µM | 0.969 | > 20 µM | 0.563 | 0.0188 µM | 0.975 | > 5 µM | 0.966 | > 10.2 µM | 0.982 | > 10.2 µM | 0.875 | > 16 µM | 0.494 | 0.0615 µM | 0.634 | 7.48 µM | 0.416 | 2.33 µM
